We go through 89 sequences from the supplement of paper PMC11417369.

The other results are listed elsewhere or left out.

In the assay the test system is PfSIP2 AP2 domain 1 (GST-tagged). Nature of the assay: gcPBM binding intensity (ln(normalized median fluorescence intensity)); higher = stronger DNA binding. A digest of the protocol: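 Binding of GST-tagged P. falciparum DNA-binding domains, expressed in E. coli and used at about 25 μg on average, was carried out for 1 h in 1× PBS containing 1% milk, 0.2 mg/ml BSA, 0.5% salmon testes DNA and 0.03% Triton X-100. The target was an Agilent 4 × 180k array of primer-extended double-stranded 36-bp intergenic genomic probes plus negative controls, read with Alexa488 anti-GST antibody at 488 nm. Binding intensity is the highest Masliner-normalised natural-log median intensity across replicate spots of either probe orientation.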
As to “TATACGTAATAATATGCACACAAATAAACTTTATAA [CACACA_site9166]”, the “gcPBM binding intensity (ln)” value turned out to be 8.88.
As for “AAAAAAAATACATACATACACACATATATATATATA [CACACA_site912]”, the “gcPBM binding intensity (ln)” value was 9.31.
The same measure for “TCTTGGTATATTCAATATATGATTTATATAATTCAA [CACACA_negctrl_site818]”: 6.99.
Turning to “ACTAGTAAATTTATATGTACATATATATATATATAG [XGTACX_site2502]”, the “gcPBM binding intensity (ln)” value turned out to be 7.64.
The same measure for “ATTTATATATATCATACACACTAATATGTATATTAT [CACACA_site5816]”: 7.04; for “GAATGAATGATAAATTTTTTTTTCTTTTTTTTTTTG [CACACA_negctrl_site333]”: 6.54.
With “TGTTATATATATACAAACATACACATTTATAAACAA [TGCATGCA_negctrl_site235]” the figure was 7.12.
For the sequence “AAAAAAAGAAAAAAAACACACACAAATATAAATAAA [CACACA_site8309]”, the “gcPBM binding intensity (ln)” value was 6.71.
As to “TTATGATCATTTATATGTACACATAATTTTTGTGCT [XGTACX_site5568]”, the “gcPBM binding intensity (ln)” value is 7.5.
On to “TATTAATTTCTTTTTTCTCATCACTTTCAAAATGAA [CACACA_negctrl_site1055]”, for which the “gcPBM binding intensity (ln)” value is 6.91.
Regarding “GTTCAAATTCTTATACCTTTTTATTGAGCCATAATA [CACACA_negctrl_site210]”, the “gcPBM binding intensity (ln)” value stood at 7.12.
On to “AGCATATATTAAACATGTACATAAATATATTATATA [XGTACX_site1451]”, for which the “gcPBM binding intensity (ln)” value amounted to 6.98.
With “ATAAAATGGGCAAACACACACAAAAAAAAGATATAT [CACACA_site1648]”, the “gcPBM binding intensity (ln)” value was 7.07.
Regarding AGGGGCGAAACAAAGGTGCTTTTATAAAATATGTAA, the “gcPBM binding intensity (ln)” value came out at 8.36.
As to “CCCAATAATTAAACAACACACATATATATCTGTAAT [CACACA_site5667]”, the “gcPBM binding intensity (ln)” value was determined as 7.14.
With “AGAAATCATCTGAATTGTACTAACAATTTTTTTTAA [XGTACX_site6191]” the figure was 6.79; with “AGAGAAGAAAACAAAACACACACATATATCTTAATA [CACACA_site8699]”, 6.85; with “AACTTAAAAAAAAAAAAAAAAAAAAAAAAAAAAAAA [GTGCAC_negctrl_site34]”, 6.94.
As for “CTTAAATCTACTATTTGTACATATTTTATTATTAAA [XGTACX_site6151]”, the “gcPBM binding intensity (ln)” value amounted to 7.19.
Regarding “TATTATAATAAAATATGTACACACATACACACATAT [XGTACX_site2360]”, the “gcPBM binding intensity (ln)” value was found to be 7.35.
With “TAGATAAAATTAAAATGTACAAACCTTTTCCCTTAT [XGTACX_site1136]” the figure was 6.6; with “ATATATATATATATATGTACTTATTTATTTTATATA [XGTACX_site8810]”, 9.97.
Turning to “TTTTTTTTATCAAATTGTACATATACAAAGGTGATC [XGTACX_site8054]”, the “gcPBM binding intensity (ln)” value was found to be 6.71.
In the case of “ATTTTATTTTTTAATAGTACTCATTTTTTATGTGAA [XGTACX_site5494]”, the “gcPBM binding intensity (ln)” value was 6.98.
As for “TATATATATATAAAGGTGCATATCTTTACGTATGTC [GTGCAC_site9665]”, the “gcPBM binding intensity (ln)” value was determined as 10.1.
Consider “ATATATATATATGATACATGCATATATTTTTTCTTC [TGCATGCA_site216]”, for which the “gcPBM binding intensity (ln)” value was found to be 9.25.
With “AACACCAAACAAAGGTGTACATATAGGAAAAAATCT [XGTACX_site1006]” the figure was 7.02.
Regarding “TACACGCAGAAACACACACACACACCCATATATATA [CACACA_site637]”, the “gcPBM binding intensity (ln)” value is 7.5.
With “TATCACATATTATGATGTACAAAGATTCTGACTAAT [XGTACX_site2770]” the figure was 6.82; with AGAGGGGAAAACATGATGCACTAGTATAACCAAGAA, 9.55; with “TTTCCTTATAAAAATACACACAAACTTTCATTAAAA [CACACA_site5953]”, 7.02.
With “TCATATTATTATATATGTACATACCAATATATTATA [XGTACX_site2988]”, the “gcPBM binding intensity (ln)” value was found to be 6.97.
Consider “TAGATATGTCTAAAAAGTACTTTCTATAACAATTCT [XGTACX_site6678]”, for which the “gcPBM binding intensity (ln)” value amounted to 6.9.
“AAGAAAAATGTGTTTTTTTTTTTTTTTTTTTTCAAT [TGCATGCA_negctrl_site404]”: the “gcPBM binding intensity (ln)” value amounted to 6.56.
The same measure for “CTTTTTTTTTTAAATAGTACTTTCTCGTATACTCAT [XGTACX_site1842]”: 6.87; for “TGTGAAATAAAATTTATACACACTTGCTAAATGATC [CACACA_site181]”: 6.75; for “TTTTTTTATTTTTGTTGTACTTATAATTCTGTAAAA [XGTACX_site7344]”: 6.97.
On to “TATAAATATAAATACACACACACACGCCAAAGCGTA [CACACA_site6181]”, for which the “gcPBM binding intensity (ln)” value was 6.82.
On to “TACAAATTAATATGTACACACAAATATAAATATGTA [CACACA_site7016]”, for which the “gcPBM binding intensity (ln)” value amounted to 7.07.
The same measure for “TACGTTATATACAACTGTACTTGGATAATTATTAAC [XGTACX_site5614]”: 7.13.
For the sequence “AAGTTTTTTTCTTTTTTTCTCTCTTTTTTTTTTTTT [XGTACX_negctrl_site613]”, the “gcPBM binding intensity (ln)” value is 6.83.
Consider “TTTTCTTTTTTGAACTGTACGCGTAAATTTAAAAAG [XGTACX_site882]”, for which the “gcPBM binding intensity (ln)” value turned out to be 7.73.
In the case of “TTTTTTATTTATTGTTATACATCTTACTACTTATAA [GTGCAC_negctrl_site381]”, the “gcPBM binding intensity (ln)” value stood at 7.18.
With “AATATATTTATATATAGTACTTTTATAATATCGTTT [XGTACX_site6658]” the figure was 6.91; with “AATACACATAATACATGTACTCACATTGTTATAACA [XGTACX_site4129]”, 7.17.
For the sequence “GATATGATTAACTTATGTTATTCTTGATGATTACGT [CACACA_negctrl_site354]”, the “gcPBM binding intensity (ln)” value worked out at 6.94.
“AAATATTTTTTAATGTGTACATAGAACATATATATA [XGTACX_site3136]”: the “gcPBM binding intensity (ln)” value amounted to 7.45.
Consider “ATAATATATATATTATGTACATATAAATTTTTTTTT [XGTACX_site5826]”, for which the “gcPBM binding intensity (ln)” value is 7.01.
As to “TATATACCTATATATACACACAAATACATAAGCTTC [CACACA_site1369]”, the “gcPBM binding intensity (ln)” value stood at 6.97.
In the case of “TTTTTTAAAAAACAAACACACACGTAGAAAAAAAAA [CACACA_site826]”, the “gcPBM binding intensity (ln)” value amounted to 7.11.
“TAATTATATGGATACACACACATACATTTACATAAC [CACACA_site5744]”: the “gcPBM binding intensity (ln)” value is 7.13.
Regarding “TATAACTATAAAAGGAGTACTATATATATATATATA [XGTACX_site1388]”, the “gcPBM binding intensity (ln)” value was 9.29.
In the case of ACTTATTTATTTTTAGTGCATTTAGTTTTATTTTAT, the “gcPBM binding intensity (ln)” value worked out at 9.27.
Regarding “AGTATACACAAACACACACACACAAAAAAAAAAAAA [CACACA_site8036]”, the “gcPBM binding intensity (ln)” value turned out to be 7.1.
On to “AATAGTACAAAAAAAAAAAAAAAAAAAAAAAAAAAA [CACACA_negctrl_site1376]”, for which the “gcPBM binding intensity (ln)” value stood at 7.26.
Consider “TCTACAAAATTATCATGTACATATTATTATAATTAT [XGTACX_site6585]”, for which the “gcPBM binding intensity (ln)” value stood at 7.28.
As for “TAAAAAGAAAAAAAGAGTACAAACAAAATAATAATT [XGTACX_site6071]”, the “gcPBM binding intensity (ln)” value is 6.83.
With “TATTTGCAATGCAAATGTACATGAATTTTTTTAATG [XGTACX_site7474]” the figure was 6.78; with “ACCTAATATTATTAAACATGCACATTTGCATAAATA [TGCATGCA_site870]”, 8.28; with “AAATAATTCAAAAAAACACACAAATTACAAAATAAA [CACACA_site269]”, 6.95.
As to “CAAAATGAAAGGAAAAGTACATTTAAATGAATAAAT [XGTACX_site8241]”, the “gcPBM binding intensity (ln)” value amounted to 6.98.
With “GTATAATATTCATATTCACACATTAAAATATATTTA [CACACA_site4879]” the figure was 6.99; with “TAAAAATATATTATATGTACGTATAACAATGTATGA [XGTACX_site8606]”, 7.23.
For “TACACCTGCACGATTGCACACAAATATGTTTTGAAG [CACACA_site8656]”, the “gcPBM binding intensity (ln)” value is 7.84.
With “TTATTATTAAAACACACACACAAAAAAAAAAAAAAA [CACACA_site1480]”, the “gcPBM binding intensity (ln)” value amounted to 7.43.
Turning to “AAAAAAAAAAAAAAAACACACATGTATAATATAATA [CACACA_site2209]”, the “gcPBM binding intensity (ln)” value was 7.52.
As to “TATAGATGTGGTTTATGTACATACTATAAAAAATCA [XGTACX_site1400]”, the “gcPBM binding intensity (ln)” value was determined as 7.19.
Take “TTATATATATATATATAATATATATATATTTAAATA [XGTACX_negctrl_site453]”: the “gcPBM binding intensity (ln)” value was determined as 7.42.
Take “AAGGACAACAAACAAACACACACAAAAAAAAAATAA [CACACA_site9263]”: the “gcPBM binding intensity (ln)” value was determined as 7.04.
On to “AAGAATATAATCTTCACACATATATATATATATATA [CACACA_site5927]”, for which the “gcPBM binding intensity (ln)” value was found to be 9.43.
Regarding “TATATATCTTTATGCACACACAAAGAAAATTTTCCT [CACACA_site7366]”, the “gcPBM binding intensity (ln)” value was determined as 7.4.
The same measure for “ATTAATTTAATTTGAATTATTTTATTATATTATTAT [XGTACX_negctrl_site10]”: 6.62; for GTTTGAATATATCAGGTGCATTTATAATTCATATGA: 10.5.
As to “TAATTAAATATTTCAGTGCATTATTTTATGATCCAT [GTGCAC_site9456]”, the “gcPBM binding intensity (ln)” value was 7.94.
“AGATGAACTAAAAAGGTGCTAAATATGTGACCACTG [GTGCAC_site9406]”: the “gcPBM binding intensity (ln)” value amounted to 8.42.
As to “ATTTAGAATGTTCCTACACACCAAATTTAAGTGTGC [CACACA_site7161]”, the “gcPBM binding intensity (ln)” value turned out to be 6.83.
Consider “TACATACACAGACACACACACATATAAATATAAATA [CACACA_site7641]”, for which the “gcPBM binding intensity (ln)” value was found to be 7.3.
The same measure for “TTTTTTTTAGTATGAACACACATATAGATTATAAAA [CACACA_site7391]”: 7.04; for “ATATTATAGATATACACACACACATGCATGCACATA [CACACA_site6203]”: 8.64; for “ATAAGAAGAAGAAAAACACACATATGTAAATATATA [CACACA_site3138]”: 6.82.
The same measure for “AAATTAGACTATAATACACACATAAAAAAAAAAAAA [CACACA_site6155]”: 6.82; for “AGATATCTTGTGAAATAAAAAAAATAATTGCTTATA [CACACA_negctrl_site798]”: 6.68.
On to “ATATTATATTATTAATGTACATATATATAATTTTAA [XGTACX_site4974]”, for which the “gcPBM binding intensity (ln)” value came to 7.05.
The same measure for “AAGGCAAACAAACACACACACATATATACCTATATA [CACACA_site5203]”: 7.15; for “TCTTATCCATATATTACACACTATATATAGAAATTA [CACACA_site291]”: 7.19; for “AGAAATGAAATCCAAAAACGAGGAACCAATAACGCA [CACACA_negctrl_site1758]”: 7.
The same measure for “TCCTTCGAAACTAAAATTCATTTAAAATATTGATAT [CACACA_negctrl_site369]”: 6.99; for “AAAGAAAAAAAAATTACACACATATATTATAGATAT [CACACA_site7495]”: 6.88; for “TACATACATACATACACACACACATATATATATATA [CACACA_site42]”: 9.4.
